Measured values taken from ChEMBL document CHEMBL1201862, “PubChem BioAssay data set” (2004).
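A five-concentration, 48-hour dose response in 96-well plates underlies each endpoint, interpolated linearly between surrounding concentrations. Here, GI50 denotes the concentration required for 50% inhibition of growth.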 Active and inactive are the calls of the source. Rule as the data show it: active = GI50 up to about 1.1 µM and inactive = higher. Bridge positions count the residues as written; N and C are the ends. Peptide text beside a SMILES is read from it.

System: NCI-H322M
Experiment: NCI-60 cell line screen, 48 h

Row | Structure (SMILES) | GI50
1 | COC(=O)C(Cc1c[nH]c2ccccc12)NP(=O)(O)OCC1OC(n2cc(Br)c(=O)[nH]c2=O)CC1O (stereo not drawn) | inactive: > 100 µM
2 | O=C(O)c1cccc(CN2CCCCC2)c1 | inactive: > 100 µM
3 | CCOC(=O)N1c2c(c3ccccc3n2C(=O)OCC)C(=O)C(OC)N1C(=O)OCC (stereo not drawn) | inactive: 47.2 µM
4 | C=CCNC(=O)N(CCCC(NC(C)=O)C(=O)NCc1ccccc1)Cc1ccccc1 (stereo not drawn) | inactive: > 100 µM
5 | CC(C)=CCN1c2ccc(Cl)cc2NC(=O)CC1C (stereo not drawn) | inactive: 36.4 µM
6 | CCOC(=O)C1=NN(c2ccccc2)C2=CC(C)=NN(C)C(=S)N21 | inactive: > 100 µM
7 | CCCCC[C@@H]1OC(=O)[C@@]2(CC3c4ccccc4C2c2ccccc23)[C@H]1C(=O)OC | inactive: > 100 µM
8 | COc1ccccc1N1C(=O)/C(=C/c2ccc(N(CCC#N)CCC#N)cc2C)N=C1c1cc([N+](=O)[O-])ccc1Cl | inactive: > 100 µM
9 | COc1cc2nc(-c3cccs3)nc(N3C(c4ccc(O)cc4)=NNC(=O)c4ccccc43)c2cc1OC | inactive: 53.6 µM
10 | CCCCOP1(=O)CC(C)=C(Cl)C(C)(OC)C1 (stereo not drawn) | inactive: > 100 µM
11 | O=c1oc2c(Cl)cc(Cl)cc2cc1C1=CSC2=NCCN12 | inactive: 68.7 µM
12 | COc1cc([C@@H]2c3cc4c(cc3[C@H](OC3OC5COC(C(C)C)OC5C(O)C3O)C3COC(=O)[C@@H]32)OCO4)cc(OC)c1OC (stereo partly drawn) | inactive: 4.02 µM
13 | N#Cc1c(-c2ccc(Cl)cc2)c2c([nH]c1=O)-c1ccccc1SC2 | inactive: 37.2 µM
14 | O=C1[C@H]2ON(c3ccccc3)C(c3ccc(Cl)cc3Cl)[C@H]2C(=O)N1c1ccc(Cc2ccc(N3C(=O)[C@@H]4ON(c5ccccc5)C(c5ccc(Cl)cc5Cl)[C@@H]4C3=O)cc2)cc1 (stereo partly drawn) | inactive: > 100 µM
15 | CCC(C)OC(=O)/C(Br)=C1/OC(=O)c2ccccc2-c2ccccc21 (stereo not drawn) | inactive: 45.8 µM
16 | CCCN(CCC)c1c([N+](=O)[O-])cc(S(N)(=O)=O)cc1[N+](=O)[O-] [ORYZALIN] | inactive: 17.7 µM
17 | Cc1cc2c(c(C(=O)NCCC(=O)O)c1)Oc1c(cc(C)cc1C(=O)NCCC(=O)O)S2 | inactive: > 100 µM
18 | CC1=C(CO)C(=O)O[C@@H]([C@@H](C)[C@H]2CC[C@H]3[C@@H]4C[C@H]5O[C@]56[C@@H](O)C=CC(=O)[C@]6(C)[C@H]4CC[C@]23C)C1 [WITHAFERIN A] | inactive: 4.63 µM
19 | CC(=O)c1c2c(cc3c1CC1(C3)Cc3ccc4c(c3C1=O)CCC4)CCC2 (stereo not drawn) | inactive: > 100 µM
20 | COc1cc(OC)c2c(c1-c1ccc(C)cc1)CC(C)N(Cc1ccccc1)[C@H]2C (stereo partly drawn) | inactive: 43.5 µM
21 | COc1ccc(C(Cc2cc(OC)c(OC)c(OC)c2)C(=O)O)cc1 (stereo not drawn) | inactive: 30.4 µM
22 | O=C(O)CCC(C(=O)O)N1C(=O)C2C3CCC(C3)C2C1=O (stereo not drawn) | inactive: > 100 µM

Row | Structure (SMILES) | GI50
23 | Nc1nc(S)c2c(N)n[nH]c2c1C(=O)Nc1ccccc1 | inactive: > 100 µM
24 | O=C1OC2(C(F)(F)F)Oc3ccccc3CN2C12CCCCC2 (stereo not drawn) | inactive: 40.3 µM
25 | O=C(Nc1cccc(C(=O)NCCCO)c1)/C(=C/c1ccccc1)NC(=O)c1ccccc1 | inactive: > 100 µM
26 | O/N=C1\C(=C\c2ccc3c(c2)OCCO3)CCCC1C(NO)c1ccc2c(c1)OCCO2 (stereo not drawn) | inactive: 18.5 µM
27 | COC(=O)/C=C1\CCC(C)O1 (stereo not drawn) | inactive: > 100 µM
28 | C=C(C)C(=O)OC1CC2(C)OC(=CC2=O)C(C)CC2OC(=O)C(=C)C12 (stereo not drawn) | inactive: 23.1 µM
29 | O=C1CCC[C@]2(CCC[C@@H](O)C2)N1 | inactive: > 100 µM
30 | CCOC(=O)C1S/C(=N/c2ccc(Cl)cc2C)N=C1C (stereo not drawn) | inactive: 24.7 µM
31 | Cc1cc(-c2nc3cc(F)c(F)cc3s2)ccc1N | inactive: > 92 µM
32 | C=CC[C@]1(/C=N/O)CN(S(=O)(=O)CC[Si](C)(C)C)C[C@H]2CC=CC[C@H]21 | inactive: 26.1 µM
33 | O=c1oc2c(ccc3c(O)cccc32)c2c1CCCC2 | inactive: 27.8 µM
34 | COC(=O)C1CCC(=O)NCCCCC(NC(=O)C(N)CC(=O)O)C(=O)N1 (stereo not drawn) (H-Asp-Lys-Glu-OMe; lactam 2-3; configuration not given here) | inactive: > 100 µM
35 | COC1(C)CC2N(C(=O)c3ccccc3)N=C(c3ccccc3)CC2(C)O1 (stereo not drawn) | inactive: > 100 µM
36 | CCO/C=C1\SC(=S)N(c2ccc(OCC)cc2)C1=O | inactive: > 100 µM
37 | Cc1cc(N(CCC#N)S(=O)(=O)c2ccccc2)ccc1/C=N\c1cccc(C(=O)O)c1 | inactive: > 100 µM
38 | CON1C(=O)C2(CCCCC2)C(=O)C12C=CC(C)CC2 (stereo not drawn) | inactive: > 100 µM
39 | O=[N+]([O-])c1ccc(C2=NOC(c3ccccc3F)N2C23CC4CC(CC(C4)C2)C3)cc1 (stereo not drawn) | inactive: > 100 µM
40 | C=CC1=CC(C)C[C@]1(O)C(=O)OC (stereo partly drawn) | active: < 0.01 µM
41 | O=C1C[C@@H]2[C@@H](c3ccccc3)[C@@H]3C(=O)c4ccccc4NC(=O)[C@H]3[C@]2(O)c2ccccc2N1 | inactive: > 100 µM
42 | CCN1CCC(O)(c2ccc(Oc3ccc(Cl)cc3)cc2)C(C(=O)c2ccc(Oc3ccc(Cl)cc3)cc2)C1 (stereo not drawn) | inactive: 14.6 µM
43 | Cc1cc(C)c2c(n1)S(=O)(=O)N(CCCN1CCN(c3cccc(C(F)(F)F)c3)CC1)c1c-2nn(C)c1C | inactive: 68.2 µM
